Results reported in paper PMC9911399, “Two distinct binding modes provide the RNA-binding protein RbFox with extraordinary sequence specificity”.
Where a chain is given by its changes, count along the chain named. The list shows a part of the results.

T1: RBFOX1 RRM (Homo sapiens, UniProt Q9NWB1 109-208)
T1 sequence: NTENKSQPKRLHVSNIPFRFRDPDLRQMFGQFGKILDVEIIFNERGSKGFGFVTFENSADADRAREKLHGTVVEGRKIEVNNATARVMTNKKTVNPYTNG

B1: GGUAAUA (DNA:RNA)
RNA: GGGAGACCGGAAUUCAGAUUGUCCGGUAAUAUUAAAUCCCGUCGUAGCCACCA
DNA 1: CAATCTGAATTCCGGTCTCCC
DNA 2: TGGTGGCTACGACGGGATT
B2: UAGGCGG (DNA:RNA)
RNA: GGGAGACCGGAAUUCAGAUUGUCCUAGGCGGUUAAAUCCCGUCGUAGCCACCA
DNA 1: CAATCTGAATTCCGGTCTCCC
DNA 2: TGGTGGCTACGACGGGATT
B3: GAUUGGA (DNA:RNA)
RNA: B1 RNA with G26A, A28U, A29G, U30G
DNA 1: CAATCTGAATTCCGGTCTCCC
DNA 2: TGGTGGCTACGACGGGATT
B4: CACACAC (DNA:RNA)
RNA: B2 RNA with U25C, G27C, G28A, G30A, G31C
DNA 1: CAATCTGAATTCCGGTCTCCC
DNA 2: TGGTGGCTACGACGGGATT
B5: GCCCUCA (DNA:RNA)
RNA: B1 RNA with G26C, U27C, A28C, A29U, U30C
DNA 1: CAATCTGAATTCCGGTCTCCC
DNA 2: TGGTGGCTACGACGGGATT
B6: AAAGCUA (DNA:RNA)
RNA: B2 RNA with U25A, G27A, G30U, G31A
DNA 1: CAATCTGAATTCCGGTCTCCC
DNA 2: TGGTGGCTACGACGGGATT
B7: AGAUUGG (DNA:RNA)
RNA: B2 RNA with U25A, A26G, G27A, G28U, C29U
DNA 1: CAATCTGAATTCCGGTCTCCC
DNA 2: TGGTGGCTACGACGGGATT
B8: UCGAGUG (DNA:RNA)
RNA: B2 RNA with A26C, G28A, C29G, G30U
DNA 1: CAATCTGAATTCCGGTCTCCC
DNA 2: TGGTGGCTACGACGGGATT
B9: UCCCUAU (DNA:RNA)
RNA: B2 RNA with A26C, G27C, G28C, C29U, G30A, G31U
DNA 1: CAATCTGAATTCCGGTCTCCC
DNA 2: TGGTGGCTACGACGGGATT
B10: AAUCUCU (DNA:RNA)
RNA: B1 RNA with G25A, G26A, A28C, A29U, U30C, A31U
DNA 1: CAATCTGAATTCCGGTCTCCC
DNA 2: TGGTGGCTACGACGGGATT
B11: GAGUAAG (DNA:RNA)
RNA: B2 RNA with U25G, G28U, C29A, G30A
DNA 1: CAATCTGAATTCCGGTCTCCC
DNA 2: TGGTGGCTACGACGGGATT
B12: GAAAGAA (DNA:RNA)
RNA: B1 RNA with G26A, U27A, A29G, U30A
DNA 1: CAATCTGAATTCCGGTCTCCC
DNA 2: TGGTGGCTACGACGGGATT
B13: GCGGGAA (DNA:RNA)
RNA: B1 RNA with G26C, U27G, A28G, A29G, U30A
DNA 1: CAATCTGAATTCCGGTCTCCC
DNA 2: TGGTGGCTACGACGGGATT
B14: CUUAGAC (DNA:RNA)
RNA: B1 RNA with G25C, G26U, A29G, U30A, A31C
DNA 1: CAATCTGAATTCCGGTCTCCC
DNA 2: TGGTGGCTACGACGGGATT
B15: GAUUUCU (DNA:RNA)
RNA: B1 RNA with G26A, A28U, A29U, U30C, A31U
DNA 1: CAATCTGAATTCCGGTCTCCC
DNA 2: TGGTGGCTACGACGGGATT
B16: UAUCACC (DNA:RNA)
RNA: B1 RNA with G25U, G26A, A28C, U30C, A31C
DNA 1: CAATCTGAATTCCGGTCTCCC
DNA 2: TGGTGGCTACGACGGGATT
B17: AUUUACC (DNA:RNA)
RNA: B1 RNA with G25A, G26U, A28U, U30C, A31C
DNA 1: CAATCTGAATTCCGGTCTCCC
DNA 2: TGGTGGCTACGACGGGATT
B18: AUGAGUU (DNA:RNA)
RNA: B1 RNA with G25A, G26U, U27G, A29G, A31U
DNA 1: CAATCTGAATTCCGGTCTCCC
DNA 2: TGGTGGCTACGACGGGATT
B19: UCCACAA (DNA:RNA)
RNA: B1 RNA with G25U, G26C, U27C, A29C, U30A
DNA 1: CAATCTGAATTCCGGTCTCCC
DNA 2: TGGTGGCTACGACGGGATT
B20: CCAAGAG (DNA:RNA)
RNA: B1 RNA with G25C, G26C, U27A, A29G, U30A, A31G
DNA 1: CAATCTGAATTCCGGTCTCCC
DNA 2: TGGTGGCTACGACGGGATT
B21: GCGACGU (DNA:RNA)
RNA: B2 RNA with U25G, A26C, G28A, G31U
DNA 1: CAATCTGAATTCCGGTCTCCC
DNA 2: TGGTGGCTACGACGGGATT
B22: UUGGACC (DNA:RNA)
RNA: B2 RNA with A26U, C29A, G30C, G31C
DNA 1: CAATCTGAATTCCGGTCTCCC
DNA 2: TGGTGGCTACGACGGGATT
B23: CUCUAGU (DNA:RNA)
RNA: B1 RNA with G25C, G26U, U27C, A28U, U30G, A31U
DNA 1: CAATCTGAATTCCGGTCTCCC
DNA 2: TGGTGGCTACGACGGGATT
B24: AAUAUGC (DNA:RNA)
RNA: B1 RNA with G25A, G26A, A29U, U30G, A31C
DNA 1: CAATCTGAATTCCGGTCTCCC
DNA 2: TGGTGGCTACGACGGGATT
B25: UUGUAGA (DNA:RNA)
RNA: B2 RNA with A26U, G28U, C29A, G31A
DNA 1: CAATCTGAATTCCGGTCTCCC
DNA 2: TGGTGGCTACGACGGGATT
B26: GCUGGUC (DNA:RNA)
RNA: B1 RNA with G26C, A28G, A29G, A31C
DNA 1: CAATCTGAATTCCGGTCTCCC
DNA 2: TGGTGGCTACGACGGGATT
B27: GGAGAUC (DNA:RNA)
RNA: B1 RNA with U27A, A28G, A31C
DNA 1: CAATCTGAATTCCGGTCTCCC
DNA 2: TGGTGGCTACGACGGGATT
B28: GUGCUGU (DNA:RNA)
RNA: B2 RNA with U25G, A26U, G28C, C29U, G31U
DNA 1: CAATCTGAATTCCGGTCTCCC
DNA 2: TGGTGGCTACGACGGGATT
B29: GUGCCGA (DNA:RNA)
RNA: B2 RNA with U25G, A26U, G28C, G31A
DNA 1: CAATCTGAATTCCGGTCTCCC
DNA 2: TGGTGGCTACGACGGGATT
B30: GGCAAUU (DNA:RNA)
RNA: B1 RNA with U27C, A31U
DNA 1: CAATCTGAATTCCGGTCTCCC
DNA 2: TGGTGGCTACGACGGGATT
B31: UGUGAAU (DNA:RNA)
RNA: B1 RNA with G25U, A28G, U30A, A31U
DNA 1: CAATCTGAATTCCGGTCTCCC
DNA 2: TGGTGGCTACGACGGGATT

These binders were tested against T1, RBFOX1 RRM (assay: EMSA; HiTS-Eq, 1 nM pool, 10 min; buffer printed only for the single-RNA assays: 10 mM Tris pH 7.5, 150 mM NaCl, 3.4 mM EDTA, 0.001% NP-40, 30 C). Conditions: tags: His6 N-terminal (pET28a); label: 5' 32P.
Summary of the method: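 Purified wild-type or mutant RbFox RRM at increasing concentrations was equilibrated with 1 nM of 5′-radiolabelled RNA carrying 7 randomized nucleotides for 10 min in 50 µL. Unbound RNA was separated by 8% native PAGE and sequenced. Relative association constants came from read-count changes of each RNA species compared with the control reaction, normalised to the cognate motif.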

First: B1
Second: B2
The binding signal of the first is lower: 0.000922 KA relative to UGCAUGU for the first, 0.0185 KA relative to UGCAUGU for the second.

First: B3
Second: B4
The binding signal of the first is higher: 0.00802 KA relative to UGCAUGU for the first, 0.00162 KA relative to UGCAUGU for the second.

First: B5
Second: B6
The binding signal of the first is higher: 0.0103 KA relative to UGCAUGU for the first, 0.00126 KA relative to UGCAUGU for the second.

First: B7
Second: B8
The binding signal of the first is lower: 0.0125 KA relative to UGCAUGU for the first, 0.0205 KA relative to UGCAUGU for the second.

First: B9
Second: B10
The binding signal of the first is higher: 0.00588 KA relative to UGCAUGU for the first, 0.00583 KA relative to UGCAUGU for the second.

First: B11
Second: B12
The binding signal of the first is higher: 0.0126 KA relative to UGCAUGU for the first, 0.00623 KA relative to UGCAUGU for the second.

First: B13
Second: B14
The binding signal of the first is higher: 0.0202 KA relative to UGCAUGU for the first, 0.00735 KA relative to UGCAUGU for the second.

First: B15
Second: B16
The binding signal of the first is higher: 0.0174 KA relative to UGCAUGU for the first, 0.00443 KA relative to UGCAUGU for the second.

First: B17
Second: B18
The binding signal of the first is lower: 0.00374 KA relative to UGCAUGU for the first, 0.00885 KA relative to UGCAUGU for the second.

First: B19
Second: B20
The binding signal of the first is higher: 0.00323 KA relative to UGCAUGU for the first, 0.0027 KA relative to UGCAUGU for the second.

First: B21
Second: B22
The binding signal of the first is higher: 0.0158 KA relative to UGCAUGU for the first, 0.00805 KA relative to UGCAUGU for the second.

First: B23
Second: B24
The binding signal of the first is lower: 0.00652 KA relative to UGCAUGU for the first, 0.00865 KA relative to UGCAUGU for the second.

First: B25
Second: B26
The binding signal of the first is lower: 0.0152 KA relative to UGCAUGU for the first, 0.0255 KA relative to UGCAUGU for the second.

First: B27
Second: B28
The binding signal of the first is lower: 0.0208 KA relative to UGCAUGU for the first, 0.021 KA relative to UGCAUGU for the second.

First: B29
Second: B30
The binding signal of the first is higher: 0.0204 KA relative to UGCAUGU for the first, 0.007 KA relative to UGCAUGU for the second.

B31 was tested, and the binding signal was 0.0228 KA relative to UGCAUGU.
